From the supplement of paper PMC4967469

Legend:
Assay in all cases: Viability of human cancer cell lines after 72 h of drug (GDSC screen)
AZD6482 = compound: Cc1cc([C@@H](C)Nc2ccccc2C(=O)O)c2nc(N3CCOCC3)cc(=O)n2c1 [AZD6482]
Method: (§1)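 Human cancer cell lines in 384-well plates, medium with 10% serum, drug for 72 h over a 256-fold dose range (nine 2-fold or five 4-fold steps up to the top dose). Adherent lines were fixed and stained with the nucleic acid dye Syto60, suspension lines read with resazurin; signal relative to control wells, capped at 0 and 100%. One two-parameter sigmoid per drug and line, fitted in a mixed model over all curves with the slope shared within a line.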

BMN-673 = compound: Cn1ncnc1[C@H]1c2n[nH]c(=O)c3cc(F)cc(c23)N[C@@H]1c1ccc(F)cc1 [BMN-673]; settings: top dose 10 µM; top dose inferred
Method: as §1

XMD11-85h = compound: COc1cc(C(=O)NC2CCN(C)CC2)ccc1Nc1ncc2c(n1)N(C1CCCC1)CCC(=O)N2C(C)C [XMD11-85h]; settings: top dose 10 µM; top dose inferred
Method: as §1

MLN4924 = compound: NS(=O)(=O)OC[C@@H]1C[C@@H](n2ccc3c(N[C@H]4CCc5ccccc54)ncnc32)C[C@@H]1O [MLN4924]; settings: top dose 1 µM; top dose inferred
Method: as §1

[1] = top dose 5 µM, screen: GDSC drug entry 1066, top dose inferred
[2] = top dose 5.12 µM, screen: GDSC drug entry 156

Cell Line	AUC (AZD6482; [1])	IC50 (AZD6482; [1]) [µM]	AUC (AZD6482; [2])	IC50 (AZD6482; [2]) [µM]	AUC (BMN-673)	IC50 (BMN-673) [µM]	AUC (XMD11-85h)	IC50 (XMD11-85h) [µM]	AUC (MLN4924)	IC50 (MLN4924) [nM]
MZ1-PC (pancreas, adherent)	0.957	> 5	0.836	4.62	0.814	7.2	0.963	> 10	0.664	200
Mo-T (hairy cell leukaemia, suspension)	0.782	2.14	0.988	> 5.12	0.865	9.12	0.956	> 10	0.938	> 1000
NALM-6 (B-cell leukaemia, suspension)	0.897	4.42	0.636	–	0.828	4.85	0.948	> 10	0.92	> 1000
NAMALWA (Burkitt lymphoma, suspension)	0.976	> 5	0.973	> 5.12	0.613	1.21	0.916	> 10	0.896	883
NB1 (neuroblastoma, semi-adherent)	0.939	> 5	0.907	> 5.12	0.635	1.54	0.964	> 10	0.957	> 1000
NB5 (neuroblastoma, adherent)	0.878	> 5	0.969	> 5.12	0.466	0.504	0.975	> 10	0.694	220
NB10 (neuroblastoma, adherent)	0.983	> 5	0.972	> 5.12	0.161	0.059	0.943	> 10	0.672	186
NB13 (neuroblastoma, adherent)	–	–	0.971	> 5.12	0.683	1.9	0.982	> 10	0.851	632
NB(TU)1-10 (neuroblastoma, adherent)	0.992	> 5	0.929	> 5.12	0.993	> 10	0.992	> 10	0.992	> 1000
NB-4 (acute myeloid leukaemia, suspension)	0.884	3.73	0.827	2.39	0.614	1.21	0.888	7.69	0.569	93
NCC021 (kidney, adherent)	0.722	1.5	–	–	0.857	> 10	0.973	> 10	0.969	> 1000
NCI-H82 (small cell lung carcinoma, suspension)	0.947	> 5	0.99	> 5.12	0.958	> 10	0.98	> 10	0.97	> 1000
NCI-H345 (small cell lung carcinoma, suspension)	0.986	> 5	0.984	> 5.12	0.982	> 10	0.985	> 10	0.989	> 1000
NCI-H441 (lung adenocarcinoma, adherent)	–	–	0.958	> 5.12	0.877	> 10	0.956	> 10	0.893	> 1000
NCI-H446 (small cell lung carcinoma, semi-adherent)	0.862	4.78	0.945	> 5.12	0.97	> 10	0.855	8.89	0.984	> 1000
NCI-H460 (large cell lung carcinoma, adherent)	0.903	> 5	0.974	> 5.12	0.263	0.142	0.989	> 10	0.905	> 1000
NCI-H508 (large intestine, semi-adherent)	0.832	> 5	–	–	0.947	> 10	0.89	> 10	0.928	> 1000
NCI-H524 (small cell lung carcinoma, suspension)	0.977	> 5	0.988	> 5.12	0.962	> 10	0.963	> 10	0.979	> 1000
NCI-H716 (large intestine, suspension)	–	–	0.98	> 5.12	0.979	> 10	0.835	9.09	0.979	> 1000
NCI-H720 (lung carcinoid, suspension)	0.977	> 5	0.992	> 5.12	0.99	> 10	0.979	> 10	0.878	865
NCI-H747 (large intestine, adherent)	–	–	0.894	> 5.12	0.897	> 10	0.939	> 10	0.956	> 1000
NCI-H810 (large cell lung carcinoma, adherent)	–	–	0.963	> 5.12	0.771	3.68	0.945	> 10	0.684	199

The IC50 comes from the fitted curve, where viability falls to half of the control; a fit beyond the top or the lowest dose is shown as a bound at that dose. The AUC spans the tested range (256-fold, ending at the top dose) of the same fit; it is 1 without any effect and falls as sensitivity rises. Any top dose called inferred was calculated from the reported fits. For some of these results: An entry number marks a drug with two screens in the source, which often give different values.
